PubChem BioAssay AID624296 (National Center for Advancing Translational Sciences (NCATS), 2012)
The campaign covered roughly 350,000 compounds. About 9,900 (2.8%) were called active. This list was built around the results that the source calls inconclusive (neither active nor inactive); the mix of calls is not that of the screen. Calls follow the shape of the dose curve; as a rule, active = well fitted activation curve with a large enough effect; inconclusive = small, poorly fitted or top-dose-only effect; inactive = no such curve, though single readings can be large or run the other way. No potency is given beside an inconclusive call; the fits are too rough.
Potency is read from the fitted curve at half-maximal effect; tags tell the direction and shape of the fitted curve.

Assay: A quantitative high throughput screen for small molecules that induce DNA re-replication in MCF 10a normal breast cells. Also: nearly all actives have a fitted effect of over 50% in size. As to activity, positive = re-replication: % of control where 0% means no effect.
Conditions: MCF 10A DNA re-replication, Hoechst nuclear intensity, 48 h; activity, positive = re-replication: at 46.1 µM (top of the series)
With `Cc1nn(-c2ccccc2)c(C)c1Cc1ccc(O)cc1` the Potency was “inactive”. With `Cc1ccc(C(=O)Nc2nc3ccc(S(C)(=O)=O)cc3s2)o1` the Potency was “inactive”. In the case of `COc1cccc(NC(=O)CCC(=O)Nc2ccc3nc(N4CCOCC4)cc(C)c3c2)c1`, the Potency is reported as “inactive”. For `Cc1cc(=O)[nH]c2ccc(Cc3ccccc3)cc12`, the Potency was inconclusive [activator, single point]. In the case of `COc1cc(CC(=O)Nc2ccc3nc(C)sc3c2)cc(OC)c1OC`, the Potency is reported as “inactive”. For `COc1ccccc1NC(=O)C1=C(C)Nc2ncnn2C1c1ccccc1C` (centres undefined), the activity, positive = re-replication was inactive: -188% [at 0.0737 µM]. In the case of `CC(=O)N1c2ccc(S(=O)(=O)N3CCCC(C(=O)NCc4ccccc4Cl)C3)cc2CC1C` (centres undefined), the Potency is reported as inconclusive [activator, partial curve, poor fit]. In the case of `C=CCc1ccccc1OCC(O)CN1CCN(Cc2ccc3c(c2)OCO3)CC1` (centres undefined), the Potency is reported as “inactive”. In the case of `CC(C)C(=O)N1CCC2(CC1)Oc1ccc(F)cc1C(=O)C21CC(c2ccc(Cl)cc2)=NO1` (centres undefined), the Potency is reported as “inactive”. In the case of `O=C(COc1ccc(-c2ccccc2)cc1)N/N=C/c1cc(O)ccc1Br`, the Potency is reported as inconclusive [activator, single point]. For `C#CCOc1c(Br)cc(/C=N/O)cc1OCC`, the Potency was inconclusive [activator, partial curve, poor fit]. For `O=C(COC(=O)c1cc(C(F)(F)F)cc(C(F)(F)F)c1)NCc1ccc(Cl)cc1`, the Potency was inconclusive [activator, single point]. For `CCCc1c(C(=O)NNc2ccc(C)cc2)cnn1-c1ccccc1`, the Potency was inconclusive [activator, partial curve, poor fit]. In the case of `Cn1cc(CCC(=O)N2CCCC(N3CCN(c4ccccc4F)CC3)C2)cn1` (centres undefined), the Potency is reported as “inactive”. With `Cc1onc(-c2c(F)cccc2Cl)c1C(=O)NCC1COc2ccccc2O1` (centres undefined) the Potency was “inactive”. For `CCOc1ccc(NS(=O)(=O)c2ccc(C(=O)N(C)CC(=O)Nc3cccc(OC)c3)cc2)cc1`, the Potency was inconclusive [activator, single point]. In the case of `Cc1ccc(NC(=O)CN2C(=O)S/C(=C\c3cccn3-c3cccc(C(=O)O)c3)C2=O)c(C)c1`, the Potency is reported as inconclusive [activator, partial curve, poor fit]. For `CCOc1ccc(NC(=O)c2cn(CC(C)C)c(=O)c3c2c2ccccc2n3C)cc1`, the Potency was inconclusive [activator, partial curve, poor fit]. In the case of `CCOC(=O)Nc1ccc(S(=O)(=O)N2CCC(C)CC2)cc1`, the Potency is reported as inconclusive [activator, full curve, poor fit]. For `CCCn1nc(NC(=O)CC(C)C)c2cc3ccccc3nc21`, the Potency was inconclusive [activator, partial curve, poor fit]. With `COc1ccc(OC)c(/C=C/C(=O)c2ccc3c(c2)OCO3)c1` the Potency was inconclusive [activator, single point]. For `Cc1c(C)c2ccc(OCC(=O)N[C@@H](Cc3c[nH]c4ccccc34)C(=O)O)cc2oc1=O`, the Potency was inconclusive [activator, full curve, poor fit]. With `O=C(CCN=C1NS(=O)(=O)c2ccccc21)OCC(=O)c1ccc(F)cc1` the Potency was inconclusive [activator, single point]. With `Cn1c(=O)[nH]c(=O)c2c1nc(SCCN1CCOCC1)n2Cc1ccccc1` the Potency was “inactive”. With `CC1(C)C(C=C(Cl)Cl)C1C(=O)N1CCN(Cc2ccccc2)CC1` (centres undefined) the Potency was “inactive”. In the case of `CC1CCCN1CC#CC(O)(c1ccccc1)c1ccccc1` (centres undefined), the Potency is reported as inconclusive [activator, single point]. In the case of `CCOc1ccc2nc(NCCNC(=O)Nc3cccc(C)c3)c(C#N)cc2c1`, the Potency is reported as inconclusive [activator, full curve]. With `COc1cc(/C=C/C(=O)c2ccc3c(c2)OCO3)cc(OC)c1OC` the Potency was “inactive”. For `CCCN1C2CCCC1CC(NC(=O)c1ccccc1F)C2` (centres undefined), the Potency was inconclusive [activator, partial curve, poor fit]. In the case of `CC1c2cc3c(cc2CCN1C(=O)c1ccc(Cl)cc1)OCCCO3` (centres undefined), the Potency is reported as inconclusive [activator, single point]. With `Cc1ccc(-n2nnnc2SCC(=O)Nc2nc(-c3ccc(F)cc3)cs2)cc1C` the Potency was inconclusive [activator, partial curve, poor fit]. For `Oc1ccc(-c2cc(-c3ccc(O)cc3)nc(-c3ccccc3)n2)cc1`, the Potency was inconclusive [activator, single point]. In the case of `N#C/C(=C\c1cccnc1)c1nc2ccccc2[nH]1`, the Potency is reported as inconclusive [activator, single point]. For `[O-][n+]1onc2c3cc(-c4ccccc4)nnc3ccc21`, the Potency was inconclusive [activator, partial curve]. In the case of `COc1cc(/C=C2/C(=O)N(c3ccc(Br)cc3)N=C2C)cc(OC)c1OC`, the Potency is reported as inconclusive [activator, single point]. For `CCOc1ccc(NC(=S)Nc2ccc(OCC)cc2)cc1`, the Potency was inconclusive [activator, single point]. With `COc1ccc(CNC(=O)CN2C(=O)NC3(CCCCCC3)C2=O)cc1` the Potency was “inactive”. In the case of `O=C(Cn1nc(-c2ccccc2)ccc1=O)NCCN1CCN(c2cccc(Cl)c2)CC1`, the Potency is reported as “inactive”. With `CCc1ccccc1NC(=O)N[C@@H](C)C(=O)OC` the Potency was inconclusive [activator, partial curve, poor fit]. For `COC(=O)c1ccc(C(=O)OC)c(NC(=O)Oc2ccccc2)c1`, the Potency was “inactive”. In the case of `CCOC(=O)Cn1ncc2c3ccccc3n(CC(=O)OCC)c2c1=O`, the Potency is reported as “inactive”. For `CCOC(=O)C1(CCOc2ccccc2)CCN(Cc2ccc(OC)cc2)CC1`, the Potency was “inactive”. With `O=C(O)c1c2c(nc3ccccc13)/C(=C/c1ccc(O)cc1)CC2` the Potency was inconclusive [activator, partial curve, poor fit]. For `CCOc1ccccc1NC(=O)c1cc2ccccc2oc1=O`, the Potency was inconclusive [activator, single point]. In the case of `Cc1ccccc1NC(=O)CSc1nc2ncc(Cl)cc2[nH]1`, the Potency is reported as inconclusive [activator, partial curve, poor fit]. In the case of `N#Cc1c(-c2ccccc2)nc(SCc2cccc(Cl)c2)[nH]c1=O`, the Potency is reported as inconclusive [activator, single point]. In the case of `c1cc2c(cc1C1=NNC(=NC3CC3)SC1)OCCO2`, the Potency is reported as inconclusive [activator, single point]. In the case of `O=C(Cc1ccc(-n2cccc2)cc1)NCc1cccs1`, the Potency is reported as inconclusive [activator, full curve, poor fit]. With `O=C(c1ccc(COc2ccc(Cl)cc2)o1)N1CCN(Cc2ccc3c(c2)OCO3)CC1` the Potency was inconclusive [activator, single point]. For `Cc1cc(SCC(=O)Nc2ccccc2)n2ncc(-c3ccccc3)c2n1`, the Potency was inconclusive [activator, single point]. In the case of `COCCn1nnnc1C(C(C)C)N(Cc1cccnc1)Cc1cc2cc(OC)ccc2[nH]c1=O` (centres undefined), the Potency is reported as “inactive”. In the case of `Fc1cc(F)c(F)c(SCCc2ccncc2)c1F`, the Potency is reported as inconclusive [activator, single point]. For `O=C(NC(=S)Nc1cccc(S(=O)(=O)NC2=NCCC2)c1)c1cc(-c2ccco2)nc2ccccc12`, the Potency was inconclusive [activator, full curve, poor fit]. With `Cn1c(=O)[nH]c(=O)c2c1nc(N1CCCC1)n2CC(O)COc1ccccc1` (centres undefined) the Potency was inconclusive [activator, full curve, poor fit]. With `Cc1ccc(/C=N/NC(=O)Cc2ccc(Cl)cc2)c(O)c1` the Potency was “inactive”. In the case of `O=C(Nc1ncccc1O)C1CCN(S(=O)(=O)c2ccc3ccccc3c2)CC1`, the Potency is reported as “inactive”. In the case of `Cc1ccc(-n2c(SCC(=O)NCCN3C(=O)CSC3=O)nnc2-c2ccccc2)cc1`, the Potency is reported as “inactive”. In the case of `COc1cc(C(=O)OCC(=O)NCC2CCCCC2)ccc1OCC(C)C`, the Potency is reported as inconclusive [activator, single point]. With `NCC/C=C1/c2ccccc2CSc2ccccc21` the Potency was “inactive”. With `Fc1ccc(CN(Cc2ccccc2)C(c2cccs2)c2nnnn2C2CCCCC2)cc1` (centres undefined) the Potency was inconclusive [activator, full curve]. With `COc1cc(/C=C/C(=O)OCC(=O)NCc2cccs2)ccc1OC(F)F` the Potency was inconclusive [activator, single point]. For `CC1CC(C)CN(c2ccc([N+](=O)[O-])nc2)C1` (centres undefined), the Potency was inconclusive [activator, single point]. For `CC1=C(C(=O)Nc2nc3ccccc3s2)C(c2ccco2)C(C#N)=C(SCC(=O)NC2CCCCC2)N1` (centres undefined), the Potency was active: 14.6 µM. In the case of `COc1ccc(CN(C)CC(=O)Nc2ccc(SC(F)F)cc2)cc1OC`, the Potency is reported as “inactive”. In the case of `CCN(CC)c1ccc(/C=N/Nc2nc(C)cc(=O)[nH]2)c(O)c1`, the Potency is reported as active: 8.2 µM. For `Cc1ccc(C2CC2c2n[nH]c(=S)n2-c2cccc(C)c2)cc1` (centres undefined), the Potency was inconclusive [activator, single point]. With `CCOC(=O)CC1CCCCN1C(=O)c1cc(COc2cccc3cnccc23)on1` (centres undefined) the Potency was inconclusive [activator, full curve, poor fit]. With `COc1ccc(C)cc1Nc1nc(-c2c[nH]c3ccccc23)cs1` the Potency was inconclusive [activator, single point]. For `Cc1sc2nc(COC(=O)CNC(=O)c3ccc(C(C)(C)C)cc3)[nH]c(=O)c2c1C`, the Potency was inconclusive [activator, single point].
